# About 11,000 (3.1%) of roughly 360,000 compounds were called active. The inconclusive results got no clear call from the source; some entries with a clear call stand among them for comparison. Calls follow the shape of the dose curve; as a rule, active = well fitted inhibition curve with a large enough effect; inconclusive = small, poorly fitted or top-dose-only effect; inactive = no such curve, though single readings can be large or run the other way. Potencies of inconclusive entries are left out as doubtful fits.
# Biological target: Schistosoma mansoni thioredoxin glutathione reductase (TGR) (UniProt Q962Y6)
# Test: qHTS Assay for the Inhibitors of Schistosoma Mansoni Peroxiredoxins; also: nearly all actives have a fitted effect of over 60% in size
# Conditions: purified TGR, DTNB reduction, TNB absorbance 405 nm; activity change, negative = inhibition: at 114 µM (top of the series) unless noted
# Method in brief: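 First, TGR (20 nM dispensed) and NADPH were mixed with compound. Second, a 15 min room-temperature incubation followed. Third, further NADPH and then DTNB were added to start the reaction. Finally, TNB absorbance was monitored kinetically.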
# % is scaled to controls: 0 for no effect and ±100 for the full control effect; potency is read from the fitted curve at half-maximal effect; tags tell the direction and shape of the fitted curve.
Compound,Potency,"activity change, negative = inhibition"
O=C(C1CC(=O)N(C2CCCC2)C1)N1CCN(c2ccccc2)CC1 (centres undefined),"inconclusive [inhibitor, full curve]",–
O=C(NNC1=C(C(=O)C(F)(F)F)CCC1)c1cccc(Cl)c1,"inconclusive [inhibitor, full curve, poor fit]",–
O=C1CCCC(O)=C1N=Nc1ccc2ncsc2c1,"inconclusive [inhibitor, single point]",–
Cc1ccc(OCC(=O)N/N=C/c2ccc([N+](=O)[O-])o2)cc1,"inconclusive [inhibitor, partial curve]",–
Cc1ccc(-c2cc(C(=O)N3CCN(c4ccc(F)cc4)CC3)c3ccccc3n2)o1,active: 44.7 µM,–
COc1cccc2[nH]c(C(=O)NC(C)c3ccccc3)cc12 (centres undefined),–,inactive: -19.7%
COc1cccc(C2(O)CC(C(F)(F)F)=NN2C(=O)c2ccccn2)c1 (centres undefined),"inconclusive [inhibitor, single point]",–
O=C(c1ccc2nc(N3CCOCC3)sc2c1)N1CCN(C(=O)c2ccco2)CC1,"inconclusive [inhibitor, single point]",–
Cc1ccc(CNC(=O)CCSCc2ccc(C)cc2)cc1,"inconclusive [inhibitor, full curve]",–
CN1CCN(S(=O)(=O)c2ccc(NC(=O)c3cccc(S(=O)(=O)N4CCCC4)c3)cc2)CC1,–,inactive: 0%
O=C(Nn1c(-c2ccc(Br)cc2)nc2ccccc2c1=O)c1ccc([N+](=O)[O-])cc1,"inconclusive [inhibitor, partial curve]",–
Cc1ccc(S(=O)(=O)NN2C(=O)/C(=C/c3ccccn3)SC2=S)cc1,"inconclusive [inhibitor, partial curve]",–
CCN1C(=O)[C@H]2[C@@H](c3ccc(-c4ccc(F)cc4)c(OC)c3)N[C@@](CC(C)C)(C(=O)OC)[C@H]2C1=O,active: 39.8 µM,–
NC(=O)N/N=C/c1ccc([N+](=O)[O-])o1,"inconclusive [inhibitor, partial curve]",–
Cc1cc(C)n2cc(COc3ccc4ccccc4c3)nc2n1,–,inactive: -3.16%
CCc1nc(-c2ccccc2)c2ccccn12,"inconclusive [inhibitor, partial curve]",–
Cc1nc(C)c(-c2ccc(SCC(=O)Nc3ccccc3F)nn2)s1,–,inactive: -2.97%
CC(C)(C)c1ccc(-c2noc(CCC(=O)Nc3cccnc3)n2)cc1,–,inactive: -2.73%
COc1ccccc1-c1oc2ccccc2c1C#CCCO,"inconclusive [inhibitor, single point]",–
COC(=O)c1ccc(CSc2nc3scc(-c4cccs4)c3c(=O)[nH]2)o1,"inconclusive [inhibitor, partial curve]",–
CC(=O)Oc1c(C)cc(O)c2ccccc12,active: 39.8 µM,–
O=C(CCn1cccc1)N1CCc2ccccc21,active: 25.1 µM,–
NC(=S)N/N=C/c1ccc(Br)o1,"inconclusive [inhibitor, single point]",–
O=C(c1cc2ccccc2o1)N1CCCC1,–,inactive: 15.9%
Cc1ccc(S(=O)(=O)N2CCCC(CCC(=O)NCc3ccccc3F)C2)s1 (centres undefined),"inconclusive [inhibitor, partial curve]",–

Compound,Potency,"activity change, negative = inhibition"
CCc1nc(NCCO)c(C#N)c2c1CSC(C)(C)C2,"inconclusive [inhibitor, partial curve]",–
CCOC(=O)NC(=O)CSc1nc(C)cc(C)c1C#N,"inconclusive [inhibitor, single point]",–
OCCC1CN(Cc2ccon2)CCN1Cc1ccccc1 (centres undefined),"inconclusive [inhibitor, partial curve]",–
Cc1ccc2nc(-c3ccc(N4C(=N)SC5CS(=O)(=O)CC54)cc3)sc2c1 (centres undefined),"inconclusive [inhibitor, partial curve]",–
O=C(NC(=S)Nc1ccc(S(=O)(=O)N2CCCC2)cc1)C1CCC1,"inconclusive [inhibitor, partial curve]",–
NC(=O)c1c(NC(=O)c2ccccc2Cl)sc2c1CCC2,"inconclusive [inhibitor, partial curve]",–
Cc1ccc(-n2c(SCC(=O)NCc3ccc(F)cc3)nc3c([nH]c4ccccc43)c2=O)cc1,–,inactive: 1.35%
CC(C)CC(=O)Nc1cccc(NC(=O)CC(C)C)n1,–,inactive: -0.868%
CCC1Sc2ccc(S(=O)(=O)CCC(=O)Nc3ccc(C(=O)OC)cc3)cc2NC1=O (centres undefined),"inconclusive [inhibitor, partial curve]",–
COc1ccc(-c2[nH]ncc2CNCCn2cccn2)c(F)c1,"inconclusive [inhibitor, partial curve]",–
COc1ccccc1-n1c(O)c(C=NC2CC2)c(=O)[nH]c1=O,"inconclusive [inhibitor, full curve]",–
CCOC(=O)c1[nH]nc(-c2c(O)cc(C)cc2O)c1-c1csc(C)n1,"inconclusive [inhibitor, partial curve]",–
Cc1ccc(NC(=O)C2OCCc3ccccc32)cc1 (centres undefined),–,inactive: -2.71%
O=C(Nc1ccc2c(c1)OCO2)c1noc2c1CCCCC2,–,inactive: -29%
COC(=O)C1C(=O)C2=C(CC1C)NC(C)=C(C(=O)OC1CCCC1)C2c1ccc(N(C)C)cc1 (centres undefined),–,inactive: 2.66%
O=C(CN1C(=O)NC(Cc2ccccc2)C1=O)Nc1ccccc1 (centres undefined),–,inactive: -0.181%
COc1cccc(C(=O)OCC(=O)NCCCc2ccccc2)c1,active: 79.4 µM,–
O=C(CCCCCn1c(SCc2ccncc2)nc2ccccc2c1=O)NCc1ccco1,active: 44.7 µM,–
CC(C)(C)c1[nH]nc2c1C(c1ccc(OC(=O)c3ccco3)cc1)C(C#N)=C(N)O2 (centres undefined),–,inactive: -26.7%
CCOCCCNC(=O)/C(C#N)=C/c1ccc(C)o1,active: 39.8 µM,–
CCCC1=[N+](CC(=O)c2ccc(Br)cc2)CCn2cccc21,"inconclusive [inhibitor, partial curve]",–
Fc1ccc(F)c(NC(=S)NCCc2ccccc2)c1,–,inactive: -16.3%
COc1ccc(-n2ncc(N(C)n3cccc3)c(Cl)c2=O)cc1,–,inactive: 0.213%
CC(=O)N1CCN(C(=O)c2ccc(OC3CCN(CCc4ccccc4)CC3)cc2)CC1,"inconclusive [inhibitor, partial curve]",–
COc1cccc(CN(Cc2ccccc2F)S(=O)(=O)c2ccc(S(=O)(=O)NCc3ccccc3)cc2)c1,–,inactive: 5.38%

Compound,Potency,"activity change, negative = inhibition"
CCCOc1ccc(N2C(=O)CC(N3CCN(C(=O)c4ccco4)CC3)C2=O)cc1 (centres undefined),"inconclusive [inhibitor, single point]",–
CC(NS(=O)(=O)c1ccccc1)C(=O)NCc1ccco1 (centres undefined),"inconclusive [inhibitor, full curve, poor fit]",–
Cc1c(Cl)cn2c(=O)cc(CN3CCN(c4ccc(F)cc4)CC3)nc2c1Cl,active: 50.1 µM,–
Cc1ccc(C(=O)Nc2ccc(O)c(C(=O)O)c2)o1,"inconclusive [inhibitor, single point]",–
O=c1c(OC2OC(CO)C(O)C(O)C2OC2OC(CO)C(O)C(O)C2OC2OC(CO)C(O)C(O)C2O)c(-c2ccc(O)c(O)c2)oc2cc(O)cc(O)c12 (centres undefined),"inconclusive [inhibitor, partial curve]",–
O=C(CCl)NCc1c(Cl)cccc1-n1cccc1,active: 31.6 µM,–
Oc1ccc(/C=N/N(Cc2ccccc2)c2ccccc2)c(O)c1O,"inconclusive [inhibitor, partial curve]",–
CCCc1cc(-c2n[nH]c(=S)n2CC(C)C)cs1,–,inactive: 8.95%
Oc1ccc(NC(=S)Nc2ccc(F)cc2)cc1,"inconclusive [inhibitor, single point]",–
C=CCNc1nc(C(=O)OCC(=O)c2ccccc2)cs1,"inconclusive [inhibitor, partial curve]",–
CC(C)(C)c1ccc(Oc2ccc(NC(=O)c3ccco3)cn2)cc1,–,inactive: 4.01%
N#Cc1c(OCC(=O)c2ccccc2)nc2c(c1-c1ccco1)CCc1ccccc1-2,"inconclusive [inhibitor, full curve]",–
Cc1ccc(-c2onc3ccc(Br)cc23)cc1,–,inactive: 0.27%
CCN(CC)CCCNC(=O)/C=C/C(=O)O,active: 2.51 µM,–
O=C(COC(=O)CCC(=O)Nc1nccs1)NCc1ccco1,"inconclusive [inhibitor, partial curve]",–
Cc1ccoc1C(=O)NCc1occc1C(=O)O,"inconclusive [inhibitor, partial curve, poor fit]",–
COc1cc(SC)ccc1C(=O)N(CC(=O)Nc1ccccc1Br)Cc1ccco1,"inconclusive [inhibitor, partial curve]",–
CC(C)(C)CC(C)(C)NC(=O)CSCC(=O)Nc1ccc2ccccc2c1,–,inactive: -20.6%
Cc1ccccc1N(C(=O)c1csnn1)C(C(=O)NC(C)(C)C)c1cccs1 (centres undefined),"inconclusive [inhibitor, partial curve]",–
O=C(Nc1ccccc1)c1ccc(-c2ccccc2C(F)(F)F)o1,"inconclusive [inhibitor, full curve]",–
Cn1c(NC(=O)C2CCCO2)cc(=O)n(C)c1=O (centres undefined),"inconclusive [inhibitor, full curve, poor fit]",–
Cc1ccc(NC(=O)CN(C)S(=O)(=O)c2ccc3nc(C)sc3c2)c(C)c1,–,inactive: 4.58%
COc1cc2cc(CN(Cc3nnnn3Cc3ccccc3)CC3CCCO3)c(=O)[nH]c2cc1OC (centres undefined),"inconclusive [inhibitor, partial curve]",–
COc1ccccc1C(=O)Nc1nnc(SCC(=O)NCc2ccco2)s1,"inconclusive [inhibitor, full curve, poor fit]",–
